Measurements: PubChem BioAssay AID1508642 (National Center for Advancing Translational Sciences (NCATS), 2021)
Screen size: about 43,000 compounds; about 200 (0.47%) were called active. Another 12% or so got no clear call; they are omitted. Calls follow the shape of the dose curve; as a rule, active = well fitted cell-killing curve with a large enough effect; inconclusive = small, poorly fitted or top-dose-only effect, or effect the other way; inactive = flat fitted curve, though single readings scatter. The list shows a part of the results.

assay: Cell viability qHTS assay in S16 Pmp22-F2sN cells; settings: S16 Pmp22-F2sN Schwann cells viability, CellTiter-Glo, 24 h; at 57.5 µM (top of the series); also: nearly all actives have a fitted effect of over 65% in size
Method in brief: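 Viability was measured by CellTiter-Glo luminescence (15 min, room temperature). This followed 24 h at 37 °C of compound exposure (23 nL pin transfer) in S16 Pmp22-F2sN Schwann cells, 500-1,000 per well.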
% is scaled to controls: 0 for no effect and ±100 for the full control effect.

Structure (SMILES)	activity change, negative = cytotoxicity
Cc1ccc(Cn2cccc(C(=O)Nc3ccc4c(c3)OCCO4)c2=O)cc1	inactive: 3.97%
COc1ccccc1C1SCC(=O)Nc2c1c(C)nn2-c1cccc(C)c1 (stereo unspecified)	inactive: -3%
COc1cccc(NC(=O)c2cccn(Cc3ccccc3C)c2=O)c1	inactive: 7.18%
CCCC12CN3CC(C)(CN(C1)C3c1c(C)[nH]c(=O)[nH]c1=O)C2=O (stereo unspecified)	inactive: 6.57%
COc1ccc(Br)cc1C1SCC(=O)Nc2c1c(C)nn2-c1ccccc1C (stereo unspecified)	inactive: -0.931%
CCCC1=Nc2cc(C(=O)NCCCN(CC)CC)ccc2Sc2ccccc21	inactive: 4.18%
Cc1ccc(Cn2cccc(C(=O)Nc3cc(C)on3)c2=O)cc1	inactive: 8.47%
Cc1c(C(c2ccc(Br)cc2)c2c(O)c3ccccc3oc2=O)c(=O)n(-c2ccccc2)n1C (stereo unspecified)	inactive: -3.43%
COc1ccc(OCC(=O)N2CCN(CCc3ccncc3)CC2)cc1	inactive: 1.11%
Cc1ccccc1-n1nc(C)c2c1NC(=O)CSC2c1ccc(Cl)cc1 (stereo unspecified)	inactive: -24.2%
COc1ccc(NC(=O)CCc2nc(C3=CCN(Cc4cccc(Cl)c4)CC3)no2)c(OC)c1	inactive: -27.7%
O=S1(=O)N(Cc2ccccc2Cl)CCCN1Cc1ccccc1Cl	inactive: 2.95%
O=C(Nc1ccc2c(c1)OCO2)c1cccn(Cc2cccc([N+](=O)[O-])c2)c1=O	inactive: 2.35%
Cc1ccccc1OCC(=O)N1CCN(CCc2ccccn2)CC1	inactive: -0.566%
COc1cccc(C2SCC(=O)Nc3c2c(C)nn3-c2ccc(C)c(Cl)c2)c1OC (stereo unspecified)	inactive: -8.14%
O=c1c2ccccc2nc(/C=C/c2ccccc2F)n1-c1cccc(O)c1	inactive: 7.81%
CCc1nc(SC)ncc1C(=O)Nc1ccc(Cl)cc1C(=O)c1ccccc1	inactive: 4.21%
Cc1cccc(-n2nc(C)c3c2NC(=O)CSC3c2ccccc2Cl)c1 (stereo unspecified)	inactive: -26.1%

Structure (SMILES)	activity change, negative = cytotoxicity
CC(C)Cc1nc2cccnc2n1C1CCNCC1	inactive: -38.1%
Cc1ccc(NC(=O)Cn2cc(C(=O)c3ccccc3)c3ccccc32)c(C)c1	inactive: -14.1%
COc1ccc(-n2c(/C=C/c3cccc(F)c3)nc3ccccc3c2=O)cc1Cl	inactive: -2.5%
CCCCC12CN3CC(C)(CN(C1)C3c1ccccn1)C2=O (stereo unspecified)	inactive: 0.114%
Cc1ccc(OCC(=O)Nc2ccc(Cl)cc2C(=O)c2ccccc2)cc1C	inactive: -3.26%
Cc1nnc(NC(=O)c2cccn(Cc3cccc(F)c3)c2=O)s1	inactive: 3.77%
COc1ccc(OCC(=O)N2CCN(Cc3ccc(SC)cc3)CC2)cc1	inactive: -8.44%
Cc1ccccc1-n1c(/C=C/c2ccc(N(C)C)cc2)nc2ccccc2c1=O	inactive: -15.6%
O=C(c1ccc2c(c1)N(Cc1ccc(F)cc1)C(=O)c1ccccc1S2)N1CCC2(CC1)OCCO2	inactive: -8.39%
Cc1cccc(Cn2cccc(C(=O)Nc3ccc(F)cc3F)c2=O)c1	inactive: 6.91%
Cc1ccc(OCC(=O)N2CCN(CCc3ccncc3)CC2)cc1	inactive: 2.71%
CC(C)c1ccc(OCC(=O)N2CCN(CCc3ccccn3)CC2)cc1	inactive: -5.85%
Cc1ccc(C(C)C)c(OCC(=O)N2CCN(CCc3ccncc3)CC2)c1	inactive: -6.31%
Cc1ccc(C(=O)Nc2ccccc2)cc1S(=O)(=O)N1CCCC1	inactive: 15.9%
CCc1ccc(OCC(=O)N2CCN(CCc3ccncc3)CC2)cc1	inactive: 5.11%
CCOc1ccc2nc(NC(=O)c3cccn(Cc4ccccc4Cl)c3=O)sc2c1	inactive: 10.4%
CCOc1ccc(CN(CCc2ccc3c(c2)OCO3)Cc2ccc(OC)c(Br)c2)cc1	inactive: 3.46%
Cc1ccccc1CN1C(=O)C(C)N=C(c2ccccc2)c2ccccc21 (stereo unspecified)	inactive: -21.5%
